Drawing on the RNAGym collection of RNA variant scans (doi:10.1093/nar/gkz1192), this text covers self-cleavage for 167 variants.

B1: CPEB3 Ribozyme (parent)
chain: UAACAGGGGGCCACAGCAGAAGCGUUCACGUCGCAGCCCCUGUCAGAUUCUGGUGAAUCUGCGAAUUCUGCUGUAUAUCUC

The source gives no read counts; variants with many changes may rest on few reads.

This data set covers variants of B1. In words: self-cleavage, relative activity (ratio to wild type); higher = more cleavage; in vitro, sequencing. In outline: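 CPEB3 self-cleaving ribozyme mutant libraries were made by rounds of error-prone PCR, barcoded, and transcribed in vitro with T7 RNA polymerase for 5 hours at 37°C. Cleavage occurred during transcription and a 15 min DNase I step before EDTA stop. RNAs were reverse transcribed with template switching and Illumina-sequenced, with DNA sequencing mapping barcodes to variants. Relative activity is the variant's cleaved/total read fraction divided by wild type's (minimum 5 reads), averaged across three batches.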
Take C32U U51C U54A U60C U72C U80C: the self-cleavage stood at 0.18. Then C32A C50U U51G A64G, with 0.2. The value for C34U A35U A45G U58C G63A C71A was 0.05. The value for G33U U54A U69A was 0.15; that for C32U U43C A45U U51C U69C U78C was 0.09.

For the variant U31C U48C U51C U54A U58C A64U A77G, the self-cleavage turned out to be 0.1. Regarding U31C U43A U51C, the self-cleavage was found to be 0.8. For the variant U31C U51C G63C, the self-cleavage was 0.48.

With C32U A75G A77G, the self-cleavage came out at 0.14.

Turning to G33A A45G U58A, the self-cleavage worked out at 0.07.

For the variant U31C U51A A75G, the self-cleavage is 0.76. The value for U31G U60C U66C U72C was 0.33; that for C32A A57G A75U was 0.12; that for C32U U43C U49C A56G was 0.53. Consider C32A U43C U48C U78A, for which the self-cleavage turned out to be 0.15. The value for C32U U58A U60C C79G was 0.06; that for U31G U48C U72C was 0.11. With G33A U41A U48C, the self-cleavage is 0.19. The value for U31C U43C U54A was 0.66; that for A35C U43C A77U was 0.56; that for U31C U60C A65U was 0.12. Consider C32U U54C A65G, for which the self-cleavage came out at 0.16. On to U31C U51A U72C U80C, for which the self-cleavage turned out to be 0.86. Take U31C U72C A77U: the self-cleavage worked out at 1.2. For G33U A35U U60G, the self-cleavage is 0.12. Then C32U A57G U80C, with 0.11; and G33A U43C U51C U60A, with 0.3.

C32A C38G U58G: the self-cleavage was 0.1. On to U31G U51A U80C, for which the self-cleavage stood at 0.62. Then G33U U48C U72A, with 0.11.

Take U31C U43C A65G: the self-cleavage worked out at 0.19. The value for U31C U54C U80C was 1.04; that for C32U G42A U54C U60A U69C was 0.18.

C32U U41C C62G: the self-cleavage amounted to 0.15. Then U31C U48C U60C, with 0.2; and C32A U72A U78C, with 0.13.

Regarding C34A U41C C81U, the self-cleavage is 0.48. The value for G33A G36U U43C G52A U69A was 0.43; that for U31C U78C U80A was 1.04.

On to G33C C38U U41C U72A, for which the self-cleavage was found to be 0.07. Then U31C U41G U74C, with 0.53; and G33A C34U U43A U49C U72C U78C, with 0.05. The value for G33A A56G A57G U60C was 0.37.

For the variant C32A A57G U74C, the self-cleavage came out at 0.08.

In the case of U31C U48G U74C, the self-cleavage came out at 0.51. The value for G33C A35U G70A U72A was 0.15; that for G33A A47G A64G U67C was 0.13; that for C32U U41C A56G was 0.47. Consider C32U U54C U58G, for which the self-cleavage came to 0.12.

Consider U31C U43A A45C U69A, for which the self-cleavage worked out at 0.28. Then U31C U67G A75G, with 0.14; and C32U U60G U74C A75U U78C, with 0.08.

As for C32U U54C U78C, the self-cleavage amounted to 0.12. Then U31C U51A G53U C71A U76C U78C, with 0.31. For the variant G33A A35G U51G A56U, the self-cleavage was 0.15.

As to U31C U74A U78C, the self-cleavage was found to be 1.23. The value for G33A U51C U76A was 0.21. As for G33A U43C A47G A64G, the self-cleavage is 0.19. As for U31G A35G A45G, the self-cleavage stood at 1.21.

As to C32U U51C A57G U67C, the self-cleavage was 0.14. Regarding U31C U49A U54A A64G, the self-cleavage stood at 0.13.

In the case of C34A U51C U54A U80C, the self-cleavage amounted to 0.17. With U31G A64U A75G, the self-cleavage came to 0.16. U31G A65G U78C: the self-cleavage was determined as 0.13.

Turning to C34U A57U U76C, the self-cleavage worked out at 0.27. Then U31C U49C U66A, with 0.15; and G33A U49A U58C, with 0.12. Take A35C U51A G73U: the self-cleavage was found to be 1.38.

As for C34U A64G U72A, the self-cleavage came to 0.19. Then G33A U54G A64U, with 0.06. Take G33A A57G A64U: the self-cleavage came to 0.09.

Turning to C32A U41A U54A U58C A65G A77U, the self-cleavage was 0.07.

For U31C U41G U49A A64U U72A, the self-cleavage was 0.12. The value for G33U U41A U51C G53C U76C was 0.15; that for G33A A56U A57G was 0.18. Turning to C34A A57G U66C, the self-cleavage was determined as 0.13. As for C32A A56G A57G, the self-cleavage came out at 0.17. On to G33C C40A U41A A65G, for which the self-cleavage worked out at 0.08. The value for G33A U41A G53U G63A A64G was 0.11; that for G33U C39U U43C U60C was 0.08; that for U31C U69G U72A was 0.31. As for C32U A47G A77U, the self-cleavage was 0.29. Then U31C U48C A64G U74C, with 0.54; and U31C U49C U72A, with 0.12; and G33A A35G U51A U72C, with 0.17. Then C32U A35G U41C U49A U51A A56U, with 0.14. Then U31C U43C U60C, with 0.2; and C32A U58A U66C A77G, with 0.18; and G33A U43C U67C A75G, with 0.06. As for U31C U49G U74C, the self-cleavage was 0.47. Then U31C U48C U51A A56G, with 0.1; and U31G U41C C62U, with 0.11.

As to C32U A56G U69C, the self-cleavage stood at 0.11. Take C32A U54C U72A: the self-cleavage was found to be 0.28.

Consider C34A U41C U58C A64G U78C, for which the self-cleavage worked out at 0.13. Then U31C U54C U58C U74G, with 0.3; and C34A U54C A64G, with 0.19; and C32A U60C U78C C79U, with 0.24.

For the variant G33A U43C A57C U67C U76C, the self-cleavage was 0.05. Then U31C U49G U54A G55C, with 0.42; and G33A A45U U66G, with 0.14; and U31C U43C A64G, with 0.24. As for U31C U49A U51C A56G U67C U78A, the self-cleavage is 0.2.

As to U31G C62U U78A, the self-cleavage came out at 0.09.

Turning to U31G U49A U72A U78C, the self-cleavage is 0.08. The value for G33A A47G C50A was 0.18. The value for C32U U43C A64U was 0.19; that for C34A U58A A65G was 0.12; that for C34U U48C U60C U69C U76C was 0.09. Turning to C32U U48C U49C, the self-cleavage worked out at 0.13. Then C32U C37A U51C C62G, with 0.27; and C32A U51C A56G, with 0.12. For C32U U48A U58C, the self-cleavage was found to be 0.14.

On to G33C U49C U54C U69C, for which the self-cleavage turned out to be 0.31. C34U U41C A45G A56U: the self-cleavage is 0.13. The value for G33A U48C U60C U69C was 0.09.

U31C U51C A64G U80A: the self-cleavage worked out at 0.38. Then C32U A45U A57G, with 0.15; and U31C U60G U76A, with 0.36.

Regarding C34G U51C C81A, the self-cleavage was found to be 0.18. Take C32A U41C U43C: the self-cleavage is 0.07. The value for C32G C37A U67C was 0.1. Then G33U A56U U60C, with 0.15; and C32U U43C A45U U48A U80C, with 0.08. In the case of C34G U43A U48C A64G U67C, the self-cleavage was 0.11. On to U31C U54C U72C, for which the self-cleavage came to 1.2. On to U31C U54C U72A, for which the self-cleavage is 0.53.

For C34U U51A A75G U78C, the self-cleavage is 0.14. Consider C34U U43A U48C, for which the self-cleavage was determined as 0.04. On to C34A A47G U72C U78C, for which the self-cleavage was found to be 0.12. In the case of U31C U58A U74C, the self-cleavage turned out to be 0.37. Turning to G33A A56G U72A, the self-cleavage came to 0.12. Then G33A A47G U72C, with 0.15; and C32A C37A U54G U58A A65G C71G, with 0.11.

For G33A C59U U80C, the self-cleavage came to 0.15. The value for C32A U60C U67A was 0.12; that for C32A U60A G63A was 0.19; that for C34U U41A U60A was 0.21. As for G33A A35G A47U, the self-cleavage turned out to be 0.18. As to U31C U60A A64G U74C, the self-cleavage came to 0.33. Then G33U U69A U74C, with 0.06.

For the variant C32A A56G U69C, the self-cleavage stood at 0.14. Then C34A A45U A64U U67C U72C, with 0.2; and C32A U43C U69A A75G, with 0.28. Then U31C U43C C44G A47G, with 0.21. On to U31G U43C U49G A57G U60C, for which the self-cleavage was 0.12. The value for U31C U72C C79U was 0.38; that for G33A U48A A57G was 0.12. For the variant A35C U41C U67C, the self-cleavage is 0.21.

As to G33C A35G A45G U54A U60C U66C, the self-cleavage was determined as 0.18. The value for C32G U54G U72C U74C was 0.08; that for G33A U41C U72A was 0.15; that for C32U U49A U67C was 0.11. The value for C34U C44U U51A U60C U78A was 0.06. Then G33A U51A U60A, with 0.16; and A35C U48C A57C U58C, with 0.16. For the variant G33U U51C C68A U72C, the self-cleavage amounted to 0.06.

With U31C U60C U80C, the self-cleavage worked out at 0.38. In the case of U31G C38U C39U U78C, the self-cleavage came to 0.13.

Take U31G U41A U72C A75U: the self-cleavage worked out at 0.24. Then C32U U41A U48C U51C, with 0.18. The value for U31C U66G U69A was 0.38.

G33A U49C U60A C71U: the self-cleavage was 0.06. The value for C32A U41A C68U was 0.14; that for U31G A35U A56U U69C U72G U80A was 0.09; that for U31C U54A U60A was 0.24.

As for A35C U49C U74C U78C, the self-cleavage amounted to 0.27.
